Laboratory results: the supplement of paper PMC9151546
Most values come without repeats; read them as rough.

Legend:
[1] = system: CHO-K1; assay: relative survival (nuclei to bead ratio vs DMSO control) (% of vehicle control); higher = more surviving cells
Protocol: (§1)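 Flow-cytometric in vitro micronucleus assay (Litron MicroFlow) in CHO-K1 cells in 96-well plates, 19 concentrations (4.5-200 µM, n=1 per concentration). Without S9, cells were exposed for 24 h and sampled at 48 h. With Aroclor 1254-induced rat liver S9, cells were exposed for 3-4 h and sampled at 27-28 h. Read-outs are %MN and %hypodiploid nuclei relative to nucleated events, and relative survival as the nuclei-to-bead ratio versus the 1% DMSO vehicle control (x100).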

[2] = system: CHO-K1; assay: micronucleus frequency (% of nucleated events); higher = more micronuclei (genotoxic)
[3] = system: CHO-K1; assay: hypodiploid nuclei frequency (% of nucleated events); higher = more hypodiploid events (aneugenic)
Protocol: as §1
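Throughout, for hypodiploid nuclei frequency (% of nucleated events): hypodiploid nuclei gated on a flow cytometer with 488 nm excitation after SYTOX Green staining, cultures at 37 °C, positive controls vinblastine without S9 and cyclophosphamide with S9.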
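Throughout, for micronucleus frequency (% of nucleated events): cells lysed with nuclei stained by SYTOX Green, then micronucleus-gated events counted against nucleated events by flow cytometry with 488 nm excitation.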
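Throughout, for relative survival (nuclei to bead ratio vs DMSO control): Lysed-cell nuclei stained with SYTOX Green and counted against counting beads by flow cytometry at 488 nm excitation, with vinblastine (no S9) and cyclophosphamide (plus S9) as positive controls.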

CCC(C)(C)c1ccc(O)cc1 [4-(2-Methylbutan-2-yl)phenol]
Settings | hypodiploid nuclei frequency, [3] [%] | micronucleus frequency, [2] [%] | relative survival, [1]
concentration: 4.5 (µM), S9 metabolic activation: with S9, exposure time: 3-4 hours | 0.24 | 0.9 | 102
concentration: 4.5 (µM), S9 metabolic activation: without S9, exposure time: 24 hours | 0.76 | 1.06 | 105
concentration: 5.63 (µM), S9 metabolic activation: with S9, exposure time: 3-4 hours | 0.14 | 1.02 | 108
concentration: 5.63 (µM), S9 metabolic activation: without S9, exposure time: 24 hours | 0.56 | 1.46 | 87.3
concentration: 7.04 (µM), S9 metabolic activation: with S9, exposure time: 3-4 hours | 0.2 | 1.12 | 108
concentration: 7.04 (µM), S9 metabolic activation: without S9, exposure time: 24 hours | 0.58 | 1.38 | 103
concentration: 8.8 (µM), S9 metabolic activation: with S9, exposure time: 3-4 hours | 0.1 | 1.08 | 107
concentration: 8.8 (µM), S9 metabolic activation: without S9, exposure time: 24 hours | 0.44 | 1.5 | 98.5
concentration: 11 (µM), S9 metabolic activation: with S9, exposure time: 3-4 hours | 0.16 | 1.02 | 101
concentration: 11 (µM), S9 metabolic activation: without S9, exposure time: 24 hours | 0.5 | 1.22 | 118
concentration: 13.7 (µM), S9 metabolic activation: with S9, exposure time: 3-4 hours | 0.18 | 1.02 | 113
concentration: 13.7 (µM), S9 metabolic activation: without S9, exposure time: 24 hours | 0.38 | 1.28 | 109
concentration: 17.2 (µM), S9 metabolic activation: with S9, exposure time: 3-4 hours | 0.24 | 0.74 | 123
concentration: 17.2 (µM), S9 metabolic activation: without S9, exposure time: 24 hours | 0.56 | 1.8 | 106
concentration: 21.5 (µM), S9 metabolic activation: with S9, exposure time: 3-4 hours | 0.18 | 1.04 | 110
concentration: 21.5 (µM), S9 metabolic activation: without S9, exposure time: 24 hours | 0.64 | 1.36 | 105
concentration: 26.8 (µM), S9 metabolic activation: with S9, exposure time: 3-4 hours | 0.24 | 0.92 | 98.8
concentration: 26.8 (µM), S9 metabolic activation: without S9, exposure time: 24 hours | 0.66 | 0.96 | 99.1
concentration: 33.6 (µM), S9 metabolic activation: with S9, exposure time: 3-4 hours | 0.18 | 0.94 | 108
concentration: 33.6 (µM), S9 metabolic activation: without S9, exposure time: 24 hours | 0.76 | 1.2 | 100
concentration: 41.9 (µM), S9 metabolic activation: with S9, exposure time: 3-4 hours | 0.1 | 1.1 | 96
concentration: 41.9 (µM), S9 metabolic activation: without S9, exposure time: 24 hours | 0.9 | 0.98 | 119
concentration: 52.4 (µM), S9 metabolic activation: with S9, exposure time: 3-4 hours | 0.26 | 0.96 | 93.6
concentration: 52.4 (µM), S9 metabolic activation: without S9, exposure time: 24 hours | 0.58 | 1.02 | 113
concentration: 65.5 (µM), S9 metabolic activation: with S9, exposure time: 3-4 hours | 0.2 | 1.46 | 105
concentration: 65.5 (µM), S9 metabolic activation: without S9, exposure time: 24 hours | 0.62 | 1.18 | 106
concentration: 81.9 (µM), S9 metabolic activation: with S9, exposure time: 3-4 hours | 0.22 | 1.24 | 81.7
concentration: 81.9 (µM), S9 metabolic activation: without S9, exposure time: 24 hours | 0.5 | 0.98 | 109
concentration: 102 (µM), S9 metabolic activation: with S9, exposure time: 3-4 hours | 0.3 | 1.54 | 82.5
concentration: 102 (µM), S9 metabolic activation: without S9, exposure time: 24 hours | 0.94 | 2.12 | 90.1
concentration: 128 (µM), S9 metabolic activation: with S9, exposure time: 3-4 hours | 0.26 | 1.72 | 101
concentration: 128 (µM), S9 metabolic activation: without S9, exposure time: 24 hours | 0.92 | 1.54 | 88.7
concentration: 160 (µM), S9 metabolic activation: with S9, exposure time: 3-4 hours | 0.22 | 1.86 | 84.1
concentration: 160 (µM), S9 metabolic activation: without S9, exposure time: 24 hours | 0.94 | 1.38 | 91.1
concentration: 200 (µM), S9 metabolic activation: with S9, exposure time: 3-4 hours | 0.14 | 2.78 | 74
concentration: 200 (µM), S9 metabolic activation: without S9, exposure time: 24 hours | 1.06 | 1.78 | 71.8

Nc1ccc(C(=O)O)cc1 [4-Aminobenzoic acid]
Settings | hypodiploid nuclei frequency, [3] [%] | micronucleus frequency, [2] [%] | relative survival, [1]
concentration: 4.5 (µM), S9 metabolic activation: with S9, exposure time: 3-4 hours | 0.24 | 2.06 | 81
concentration: 4.5 (µM), S9 metabolic activation: without S9, exposure time: 24 hours | 0.46 | 1.6 | 110
concentration: 5.63 (µM), S9 metabolic activation: with S9, exposure time: 3-4 hours | 0.22 | 1.48 | 89
concentration: 5.63 (µM), S9 metabolic activation: without S9, exposure time: 24 hours | 0.62 | 1.52 | 127
concentration: 7.04 (µM), S9 metabolic activation: with S9, exposure time: 3-4 hours | 0.3 | 1.76 | 82.6
concentration: 7.04 (µM), S9 metabolic activation: without S9, exposure time: 24 hours | 0.44 | 1.46 | 111
concentration: 8.8 (µM), S9 metabolic activation: with S9, exposure time: 3-4 hours | 0.18 | 1.18 | 95.3
concentration: 8.8 (µM), S9 metabolic activation: without S9, exposure time: 24 hours | 0.64 | 1.28 | 117
concentration: 11 (µM), S9 metabolic activation: with S9, exposure time: 3-4 hours | 0.42 | 1.82 | 109
concentration: 11 (µM), S9 metabolic activation: without S9, exposure time: 24 hours | 0.44 | 1.46 | 112
concentration: 13.7 (µM), S9 metabolic activation: with S9, exposure time: 3-4 hours | 0.24 | 0.9 | 88.7
concentration: 13.7 (µM), S9 metabolic activation: without S9, exposure time: 24 hours | 0.36 | 1.32 | 137
concentration: 17.2 (µM), S9 metabolic activation: with S9, exposure time: 3-4 hours | 0.18 | 1.22 | 77.1
concentration: 17.2 (µM), S9 metabolic activation: without S9, exposure time: 24 hours | 0.42 | 1.3 | 116
concentration: 21.5 (µM), S9 metabolic activation: with S9, exposure time: 3-4 hours | 0.22 | 0.92 | 94.6
concentration: 21.5 (µM), S9 metabolic activation: without S9, exposure time: 24 hours | 0.42 | 1.18 | 124
concentration: 26.8 (µM), S9 metabolic activation: with S9, exposure time: 3-4 hours | 0.06 | 1.14 | 86.5
concentration: 26.8 (µM), S9 metabolic activation: without S9, exposure time: 24 hours | 0.52 | 1.2 | 103
concentration: 33.6 (µM), S9 metabolic activation: with S9, exposure time: 3-4 hours | 0.16 | 1.44 | 107
concentration: 33.6 (µM), S9 metabolic activation: without S9, exposure time: 24 hours | 0.7 | 1.88 | 117
concentration: 41.9 (µM), S9 metabolic activation: with S9, exposure time: 3-4 hours | 0.32 | 1.22 | 89.3
concentration: 41.9 (µM), S9 metabolic activation: without S9, exposure time: 24 hours | 0.56 | 1.5 | 125
concentration: 52.4 (µM), S9 metabolic activation: with S9, exposure time: 3-4 hours | 0.32 | 1.2 | 88.3
concentration: 52.4 (µM), S9 metabolic activation: without S9, exposure time: 24 hours | 0.7 | 1.4 | 101
concentration: 65.5 (µM), S9 metabolic activation: with S9, exposure time: 3-4 hours | 0.22 | 1.28 | 83.2
concentration: 65.5 (µM), S9 metabolic activation: without S9, exposure time: 24 hours | 0.52 | 1.14 | 101
concentration: 81.9 (µM), S9 metabolic activation: with S9, exposure time: 3-4 hours | 0.22 | 1.04 | 99.4
concentration: 81.9 (µM), S9 metabolic activation: without S9, exposure time: 24 hours | 0.54 | 1.36 | 97.7
concentration: 102 (µM), S9 metabolic activation: with S9, exposure time: 3-4 hours | 0.12 | 0.98 | 79.8
concentration: 102 (µM), S9 metabolic activation: without S9, exposure time: 24 hours | 0.8 | 1.62 | 120
concentration: 128 (µM), S9 metabolic activation: with S9, exposure time: 3-4 hours | 0.24 | 1.12 | 82.3
concentration: 128 (µM), S9 metabolic activation: without S9, exposure time: 24 hours | 0.94 | 1.3 | 108
concentration: 160 (µM), S9 metabolic activation: with S9, exposure time: 3-4 hours | 0.14 | 1.14 | 71.7
concentration: 160 (µM), S9 metabolic activation: without S9, exposure time: 24 hours | 0.94 | 1.28 | 116
concentration: 200 (µM), S9 metabolic activation: with S9, exposure time: 3-4 hours | 0.14 | 0.78 | 73.1
concentration: 200 (µM), S9 metabolic activation: without S9, exposure time: 24 hours | 1.4 | 1.72 | 88.5
